From patent US20220257974A1, “PHOTOBIOMODULATION METHOD AND SYSTEM FOR INDUCING ACTIVITY OF BRAINDERIVED NERVE GROWTH FACTOR IN HIPPOCAMPAL TISSUE” (INDUSTRY ACADEMIC COOPERATION FOUNDATION KEIMYUNG UNIVERSITY, priority 2019, published 2022)

Test system: glutathione peroxidase (GPx)
Assay type: cell-based, mice
Details: organotypic hippocampal slices, after H2O2-induced oxidative stress
From the text: The used […] BDNF, forward [NT], and reverse [NT]; glutathione peroxidase (GPx), forward [NT], and reverse [NT]; superoxide dismutasee 1 (SOD1), forward [NT], and reverse [NT]; glutathione reductase (GR), forward [NT], and reverse [NT]; and h-GAPDH transfer [NT], reverse [NT]. All experiments were implemented three times.

OO [H2O2]
GPx expression (mRNA): expression was reduced
